Experimental data published in PubChem BioAssay AID1345082 (National Center for Advancing Translational Sciences (NCATS), 2018).
About 4,000 (4.3%) of roughly 94,000 compounds were called active. Inconclusive results, whose numbers are uncertain, are shown with a selection of clear calls. The call rests on the fitted dose curve; in most records, active means well fitted inhibition curve with a large enough effect; inconclusive means small, poorly fitted or top-dose-only effect; inactive means no such curve, though single readings can be large or run the other way. A potency beside an inconclusive call is a rough fit, not a confirmed value.

Assay: Cytotoxic Profiling in NIH 3T3 Cell Line of Diverse Libraries Using Quantitative High-Throughput Screening; further: nearly all actives have a fitted effect of over 55% in size
Settings: NIH 3T3 viability, CellTiter-Glo ATP luminescence, 48-72 h; series mostly up to 96.7 µM
How it was run: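 Cytotoxicity was measured by CellTiter-Glo ATP luminescence after 48 or 72 h compound exposure at 37 °C. Mouse NIH 3T3 fibroblasts were seeded at 400 cells/well and dosed by 23 nL pin transfer.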
Potency means the concentration at half of the fitted maximal effect; tags describe the fitted curve by direction and shape.

SMILES | Potency
CCN1c2cc(C(=O)Nc3ccc(F)cc3F)ccc2C(=O)N2CCCCCC21 (stereo unspecified) | inconclusive: 35.5 µM [inhibitor, partial curve, poor fit]
COc1cccc(-c2cc(C3CCN(S(=O)(=O)c4ccc(C#N)cc4)CC3)[nH]n2)c1 | active: 28.2 µM
CN(C)c1cccc(C(=O)N2CCCC(n3cc(-c4nc(-c5ccccc5)no4)nn3)C2)c1 (stereo unspecified) | inconclusive: 35.5 µM [inhibitor, partial curve]
CC1=C[C@@H](CNC(=O)c2ccccc2)[C@H](C(C)C)C[C@H]1Cc1nc2ccc(C)cc2[nH]1 | inconclusive: 70.8 µM [inhibitor, partial curve]
Cc1ccc(OCC(=O)NCC2Cn3cccc3C(=O)N2C)cc1 (stereo unspecified) | inconclusive: 50.1 µM [inhibitor, partial curve, poor fit]
Cc1nn(-c2ccccc2)c2c1C(C)N(CC1CN(Cc3ccc(C(F)(F)F)cc3)C1)C2=O (stereo unspecified) | active: 39.8 µM
Cc1ccc(-c2nnc(C3CN(C(=O)CC(C)C)CC34CCOCC4)o2)cc1 (stereo unspecified) | inconclusive: 44.7 µM [inhibitor, partial curve, poor fit]
COCCOCC(=O)N1CCC2(CC1)c1[nH]c3ccccc3c1CCN2C | inconclusive: 79.4 µM [inhibitor, single point]
COC(=O)CNC(=O)N1CCC(Cc2noc(-c3ccc(OC)cc3)n2)C1 (stereo unspecified) | inconclusive: 25.1 µM [inhibitor, partial curve, poor fit]
CCNC(=O)c1cccnc1OC1CCN(C(=O)CC2CCCCC2)C1 (stereo unspecified) | inactive
CC(C)CNC(=O)c1ccc2nnc(Cc3ccc(Cl)cc3)n2c1 | inconclusive: 56.2 µM [inhibitor, partial curve, poor fit]
COc1ccc(-c2ccc3ncc(Nc4ccncc4)n3n2)cn1 | inconclusive: 56.2 µM [inhibitor, partial curve, poor fit]
CCN1c2cc(C(=O)Nc3cc(OC)ccc3OC)ccc2C(=O)N2CCCCCC21 (stereo unspecified) | inconclusive: 50.1 µM [inhibitor, partial curve, poor fit]
COc1ccccc1Cn1c(=O)c(C(=O)N2CCN(C(=O)C3CC3)CC2)nc2cccnc21 | inactive
CCN(CC)C(=O)CCC1CCN(C(=O)c2ccccc2F)CC1 | inactive
Cc1nn(-c2ccccc2)c2c1C(C)N(C1CCN(C(=O)C(C)C)C1)C2=O (stereo unspecified) | inconclusive: 50.1 µM [inhibitor, partial curve, poor fit]
CCCS(=O)(=O)N1CCC(N2CC(OCC3CC3)C23CCCCC3)CC1 (stereo unspecified) | inconclusive: 50.1 µM [inhibitor, partial curve, poor fit]
CCC1=C(C(=O)OC)C(c2cccc(F)c2)N2C(CC(=O)NCCc3cccs3)=CSC2=N1 (stereo unspecified) | inconclusive: 44.7 µM [inhibitor, partial curve, poor fit]
CN(C)C(=O)c1cc2c(s1)CCC(C(=O)N1CCN(c3cccc(Cl)c3)CC1)C2 (stereo unspecified) | inconclusive: 25.1 µM [inhibitor, partial curve, poor fit]
COc1cccc(-c2cc(C(=O)N3CCN(C(C)=O)CC3)c3cnn(C)c3n2)c1 | inactive
COCCOc1cc(=O)n2c(c1C(=O)NC1CCCCC1)CCOCC2 | inactive
Cc1cc(F)ccc1NC(=O)CN1C(=O)NC2(CCC(C(C)(C)C)CC2)C1=O (stereo unspecified) | active: 39.8 µM

SMILES | Potency
O=[S+]([O-])(c1ccccc1)N1CC2(COCCN(Cc3cc(F)ccc3F)C2)C1 | inconclusive: 63.1 µM [inhibitor, partial curve, poor fit]
CC(=O)Nc1ccc(NC(=O)c2cc(-c3ccncc3)cn2Cc2ccccc2C)cc1 | inconclusive: 12.6 µM [inhibitor, full curve]
CCOC(=O)C1CCN(C(=O)c2ccc3nnc(-c4c(C)cccc4C)n3c2)CC1 | inconclusive: 70.8 µM [inhibitor, partial curve, poor fit]
COc1cccc(-c2ccc(C(=O)NCCNC(=O)N(C)C)cc2)c1 | inactive
COc1ccc(OC)c(CN2CCC3(COC(=O)N3Cc3ccccc3)C2)c1 (stereo unspecified) | inconclusive: 100 µM [inhibitor, partial curve, poor fit]
Cc1cccc(N2Cc3c(NCCO)ncnc3N(C)CC2=O)c1 | inactive
COc1cccc(-c2cc(C(=O)NCCc3cnc[nH]3)c3c(c2)N(C)CCO3)c1OC | inconclusive: 100 µM [inhibitor, single point]
CCOC(=O)CNC(=O)c1cc(-c2ccc(Cl)cc2)cn1C | inactive
CC1=C[C@@H](CO)[C@H](C(C)C)C[C@H]1Cc1nnc(Cc2c[nH]c3ccccc23)o1 | inconclusive: 89.1 µM [inhibitor, partial curve]
O=C(c1cnc2c(c1)N([S+](=O)([O-])c1cccnc1)CCC2)N1CCCC[C@@H]1c1ccccc1 | inconclusive: 70.8 µM [inhibitor, partial curve, poor fit]
O=C(c1ccc(Cl)cc1)N1CC2(CCN(CC3CCCCC3)CC2)Cc2ccccc21 | inconclusive: 44.7 µM [inhibitor, partial curve, poor fit]
CC(Cc1cccnc1)Nc1cc(-c2ccccc2F)nc2ccnn12 (stereo unspecified) | inconclusive: 50.1 µM [inhibitor, partial curve, poor fit]
C=CCN(C)C(=O)C[C@@H]1c2nc(NC(=O)Cc3ccc(OC)cc3)sc2C[C@@H]2[C@](C)(CO)[C@H](O)CC[C@]21C | inconclusive: 25.1 µM [inhibitor, full curve, poor fit]
COc1ccc(N2Cc3c(NCC4CCCCC4)ncnc3N(C)CC2=O)cc1 | inconclusive: 44.7 µM [inhibitor, partial curve, poor fit]
O=[S+]([O-])(NC1CCN(Cc2ccc(-c3ccsc3)cc2)C1)c1ccccc1 (stereo unspecified) | inconclusive: 44.7 µM [inhibitor, partial curve, poor fit]
COCc1cn([C@H]2CO[C@H]3[C@@H]2OC[C@@H]3N)nn1 | inactive
Cc1ccc(-n2cc(CN3CCn4nc(C(O)c5nccn5C)cc4C3)cn2)cc1 (stereo unspecified) | inactive
O=C([C@H]1CCCN1C(=O)C1CC1)N1CCC(N2CCOC2=O)CC1 | inactive
COc1ccc(NC(=O)O[C@@H]2CO[C@H]3[C@@H]2OC[C@@H]3NS(=O)(=O)c2ccc3ccccc3c2)cc1 | inconclusive: 56.2 µM [inhibitor, partial curve, poor fit]
CN(Cc1cnc2ccccc2n1)C(=O)c1cccc(CCC(C)(C)O)c1 | inactive
CCCCOC(=O)C1=CN(Cc2ccccc2)S(=O)(=O)N=C1C | inconclusive: 44.7 µM [inhibitor, partial curve, poor fit]
CCCCCNC(=O)Cc1csc2nc(C)c(-c3cc(C)n(-c4cccc(C)c4C)n3)c(=O)n12 | inconclusive: 12.6 µM [inhibitor, partial curve, poor fit]

SMILES | Potency
O=C(N[C@@H]1CCOC[C@H]1OCc1cscn1)c1ccc(Cl)s1 | inactive
Cc1ccsc1C(=O)N1CC(Oc2cccc(-c3nc(-c4ccccc4)no3)c2)C1 | inconclusive: 50.1 µM [inhibitor, partial curve, poor fit]
C[C@H]1CCCN1C(=O)c1nnc(COc2ccc(C#N)cc2)n1-c1cccnc1 | active: 39.8 µM
O=C(c1ccc(C(F)(F)F)cc1)N1CCN(C(=O)c2nc3cccnc3n(C3CC3)c2=O)CC1 | inconclusive: 79.4 µM [inhibitor, partial curve, poor fit]
O=C1COCCN1C1CCN(Cc2ccccc2)CC1 | inactive
COc1cccc(-c2cccc(C(=O)N3CCN([S+](=O)([O-])c4cccs4)CC3)c2)c1 | inconclusive: 50.1 µM [inhibitor, partial curve, poor fit]
COCC(=O)NC[C@H]1OC[C@@H](NC(C)C)[C@@H]1O | inactive
COc1ccc(C(=O)NC2CCCN(CCn3nc4n(c3=O)CCCC4)C2)cc1 (stereo unspecified) | inactive
CC(C)CCN1CCC(N2CCN(C(=O)c3ccc(F)cc3)CC2)C1=O (stereo unspecified) | inactive
Cc1ccc(NC(=O)Cn2c(-c3ccccc3)nc(C)c(CCO)c2=O)cc1Cl | active: 28.2 µM
CCc1nccc(CN2CCC(c3nn(C)c(=O)n3CC)CC2)n1 | inactive
COCC1CN(Cc2ccc(OC)cc2)CC12CCNCC2 (stereo unspecified) | inconclusive: 50.1 µM [inhibitor, partial curve, poor fit]
CC(C)N1CC2(C1)C(=O)N(CCCN1CCCC1=O)C(=O)[C@@H]1C[C@@H](O)CN12 | inactive
O=C(c1csc(N2CCN(c3ccccc3)CC2)n1)N1CCN(C2CCCCC2)CC1 | inconclusive: 50.1 µM [inhibitor, partial curve, poor fit]
CCc1nc2c(c(-c3ccc(Cl)cc3)n1)CN([S+](=O)([O-])c1ccc(C)cc1)CC2 | inactive
Cc1cc(C)cc(NC(=O)Cn2c(N3CCN(c4ccccc4)CC3)nc(C)cc2=O)c1 | inconclusive: 44.7 µM [inhibitor, partial curve, poor fit]
CCCC(=O)N1Cc2ccccc2CC2(CCCCN2Cc2cccnc2)C1 (stereo unspecified) | inactive
COc1ccc(-c2ccc(C(=O)N3CCC(NC(=O)Nc4ccc(C)c(F)c4)CC3)cc2)nn1 | inactive
O=C(NC1CCN(Cc2cccc(-c3ccc(F)c(F)c3)c2)CC1)c1ccc(Cl)cc1 | inactive
C[C@@H](NC(=O)C1CC1)c1c(-c2ccc(F)cc2)noc1C(=O)O | inactive
Cn1ncc(N2CCC(C(=O)NC3CCCC3)C2)cc1=O (stereo unspecified) | inactive
COc1ccc(-c2cc(C(=O)NCC3CC3)c3c(C)nn(-c4ccccc4)c3n2)cc1 | inconclusive: 39.8 µM [inhibitor, partial curve]
